Among the data in the supplement of paper PMC12423691 are AlphaScreen luminescence signal values, retold here.

This is one part of the list. Binding of human transcription factors and regulators to the viral nucleoprotein by AlphaScreen, crude cell-free proteins, amounts not normalised, one pass. Fold of the Venus control; higher = more signal. No active / inactive call. Single-pass screen; sequences are the whole Swiss-Prot entries looked up by name.

The labels stand for the following.
B1: MYNN, Q9NPC7 (protein)
chain: MQYSHHCEHLLERLNKQREAGFLCDCTIVIGEFQFKAHRNVLASFSEYFGAIYRSTSENNVFLDQSQVKADGFQKLLEFIYTGTLNLDSWNVKEIHQAADYLKVEEVVTKCKIKMEDFAFIANPSSTEISSITGNIELNQQTCLLTLRDYNNREKSEVSTDLIQANPKQGALAKKSSQTKKKKKAFNSPKTGQNKTVQYPSDILENASVELFLDANKLPTPVVEQVAQINDNSELELTSVVENTFPAQDIVHTVTVKRKRGKSQPNCALKEHSMSNIASVKSPYEAENSGEELDQRYSKAKPMCNTCGKVFSEASSLRRHMRIHKGVKPYVCHLCGKAFTQCNQLKTHVRTHTGEKPYKCELCDKGFAQKCQLVFHSRMHHGEEKPYKCDVCNLQFATSSNLKIHARKHSGEKPYVCDRCGQRFAQASTLTYHVRRHTGEKPYVCDTCGKAFAVSSSLITHSRKHTGEKPYICGICGKSFISSGELNKHFRSHTGERPFICELCGNSYTDIKNLKKHKTKVHSGADKTLDSSAEDHTLSEQDSIQKSPLSETMDVKPSDMTLPLALPLGTEDHHMLLPVTDTQSPTSDTLLRSTVNGYSEPQLIFLQQLY
B2: TBX18, O95935 (protein)
chain: MAEKRRGSPCSMLSLKAHAFSVEALIGAEKQQQLQKKRRKLGAEEAAGAVDDGGCSRGGGAGEKGSSEGDEGAALPPPAGATSGPARSGADLERGAAGGCEDGFQQGASPLASPGGSPKGSPARSLARPGTPLPSPQAPRVDLQGAELWKRFHEIGTEMIITKAGRRMFPAMRVKISGLDPHQQYYIAMDIVPVDNKRYRYVYHSSKWMVAGNADSPVPPRVYIHPDSPASGETWMRQVISFDKLKLTNNELDDQGHIILHSMHKYQPRVHVIRKDCGDDLSPIKPVPSGEGVKAFSFPETVFTTVTAYQNQQITRLKIDRNPFAKGFRDSGRNRMGLEALVESYAFWRPSLRTLTFEDIPGIPKQGNASSSTLLQGTGNGVPATHPHLLSGSSCSSPAFHLGPNTSQLCSLAPADYSACARSGLTLNRYSTSLAETYNRLTNQAGETFAPPRTPSYVGVSSSTSVNMSMGGTDGDTFSCPQTSLSMQISGMSPQLQYIMPSPSSNAFATNQTHQGSYNTFRLHSPCALYGYNFSTSPKLAASPEKIVSSQGSFLGSSPSGTMTDRQMLPPVEGVHLLSSGGQQSFFDSRTLGSLTLSSSQVSAHMV
B3: JUN, P05412 (protein)
chain: MTAKMETTFYDDALNASFLPSESGPYGYSNPKILKQSMTLNLADPVGSLKPHLRAKNSDLLTSPDVGLLKLASPELERLIIQSSNGHITTTPTPTQFLCPKNVTDEQEGFAEGFVRALAELHSQNTLPSVTSAAQPVNGAGMVAPAVASVAGGSGSGGFSASLHSEPPVYANLSNFNPGALSSGGGAPSYGAAGLAFPAQPQQQQQPPHHLPQQMPVQHPRLQALKEEPQTVPEMPGETPPLSPIDMESQERIKAERKRMRNRIAASKCRKRKLERIARLEEKVKTLKAQNSELASTANMLREQVAQLKQKVMNHVNSGCQLMLTQQLQTF
B4: CAPN3, P20807 (protein)
chain: MPTVISASVAPRTAAEPRSPGPVPHPAQSKATEAGGGNPSGIYSAIISRNFPIIGVKEKTFEQLHKKCLEKKVLYVDPEFPPDETSLFYSQKFPIQFVWKRPPEICENPRFIIDGANRTDICQGELGDCWFLAAIACLTLNQHLLFRVIPHDQSFIENYAGIFHFQFWRYGEWVDVVIDDCLPTYNNQLVFTKSNHRNEFWSALLEKAYAKLHGSYEALKGGNTTEAMEDFTGGVAEFFEIRDAPSDMYKIMKKAIERGSLMGCSIDDGTNMTYGTSPSGLNMGELIARMVRNMDNSLLQDSDLDPRGSDERPTRTIIPVQYETRMACGLVRGHAYSVTGLDEVPFKGEKVKLVRLRNPWGQVEWNGSWSDRWKDWSFVDKDEKARLQHQVTEDGEFWMSYEDFIYHFTKLEICNLTADALQSDKLQTWTVSVNEGRWVRGCSAGGCRNFPDTFWTNPQYRLKLLEEDDDPDDSEVICSFLVALMQKNRRKDRKLGASLFTIGFAIYEVPKEMHGNKQHLQKDFFLYNASKARSKTYINMREVSQRFRLPPSEYVIVPSTYEPHQEGEFILRVFSEKRNLSEEVENTISVDRPVKKKKTKPIIFVSDRANSNKELGVDQESEEGKGKTSPDKQKQSPQPQPGSSDQESEEQQQFRNIFKQIAGDDMEICADELKKVLNTVVNKHKDLKTHGFTLESCRSMIALMDTDGSGKLNLQEFHHLWNKIKAWQKIFKHYDTDQSGTINSYEMRNAVNDAGFHLNNQLYDIITMRYADKHMNIDFDSFICCFVRLEGMFRAFHAFDKDGDGIIKLNVLEWLQLTMYA
B5: PLSCR1, O15162 (protein)
chain: MDKQNSQMNASHPETNLPVGYPPQYPPTAFQGPPGYSGYPGPQVSYPPPPAGHSGPGPAGFPVPNQPVYNQPVYNQPVGAAGVPWMPAPQPPLNCPPGLEYLSQIDQILIHQQIELLEVLTGFETNNKYEIKNSFGQRVYFAAEDTDCCTRNCCGPSRPFTLRIIDNMGQEVITLERPLRCSSCCCPCCLQEIEIQAPPGVPIGYVIQTWHPCLPKFTIQNEKREDVLKISGPCVVCSCCGDVDFEIKSLDEQCVVGKISKHWTGILREAFTDADNFGIQFPLDLDVKMKAVMIGACFLIDFMFFESTGSQEQKSGVW
B6: LEF1, Q9UJU2 (protein)
chain: MPQLSGGGGGGGGDPELCATDEMIPFKDEGDPQKEKIFAEISHPEEEGDLADIKSSLVNESEIIPASNGHEVARQAQTSQEPYHDKAREHPDDGKHPDGGLYNKGPSYSSYSGYIMMPNMNNDPYMSNGSLSPPIPRTSNKVPVVQPSHAVHPLTPLITYSDEHFSPGSHPSHIPSDVNSKQGMSRHPPAPDIPTFYPLSPGGVGQITPPLGWQGQPVYPITGGFRQPYPSSLSVDTSMSRFSHHMIPGPPGPHTTGIPHPAIVTPQVKQEHPHTDSDLMHVKPQHEQRKEQEPKRPHIKKPLNAFMLYMKEMRANVVAECTLKESAAINQILGRRWHALSREEQAKYYELARKERQLHMQLYPGWSARDNYGKKKKRKREKLQESASGTGPRMTAAYI
B7: NODAL, Q96S42 (protein)
chain: MHAHCLPFLLHAWWALLQAGAATVATALLRTRGQPSSPSPLAYMLSLYRDPLPRADIIRSLQAEDVAVDGQNWTFAFDFSFLSQQEDLAWAELRLQLSSPVDLPTEGSLAIEIFHQPKPDTEQASDSCLERFQMDLFTVTLSQVTFSLGSMVLEVTRPLSKWLKHPGALEKQMSRVAGECWPRPPTPPATNVLLMLYSNLSQEQRQLGGSTLLWEAESSWRAQEGQLSWEWGKRHRRHHLPDRSQLCRKVKFQVDFNLIGWGSWIIYPKQYNAYRCEGECPNPVGEEFHPTNHAYIQSLLKRYQPHRVPSTCCAPVKTKPLSMLYVDNGRVLLDHHKDMIVEECGCL
B8: MEN1, O00255 (protein)
chain: MGLKAAQKTLFPLRSIDDVVRLFAAELGREEPDLVLLSLVLGFVEHFLAVNRVIPTNVPELTFQPSPAPDPPGGLTYFPVADLSIIAALYARFTAQIRGAVDLSLYPREGGVSSRELVKKVSDVIWNSLSRSYFKDRAHIQSLFSFITGTKLDSSGVAFAVVGACQALGLRDVHLALSEDHAWVVFGPNGEQTAEVTWHGKGNEDRRGQTVNAGVAERSWLYLKGSYMRCDRKMEVAFMVCAINPSIDLHTDSLELLQLQQKLLWLLYDLGHLERYPMALGNLADLEELEPTPGRPDPLTLYHKGIASAKTYYRDEHIYPYMYLAGYHCRNRNVREALQAWADTATVIQDYNYCREDEEIYKEFFEVANDVIPNLLKEAASLLEAGEERPGEQSQGTQSQGSALQDPECFAHLLRFYDGICKWEEGSPTPVLHVGWATFLVQSLGRFEGQVRQKVRIVSREAEAAEAEEPWGEEAREGRRRGPRRESKPEEPPPPKKPALDKGLGTGQGAVSGPPRKPPGTVAGTARGPEGGSTAQVPAPTASPPPEGPVLTFQSEKMKGMKELLVATKINSSAIKLQLTAQSQVQMKKQKVSTPSDYTLSFLKRQRKGL
B9: TBX6, O95947 (protein)
chain: MYHPRELYPSLGAGYRLGPAQPGADSSFPPALAEGYRYPELDTPKLDCFLSGMEAAPRTLAAHPPLPLLPPAMGTEPAPSAPEALHSLPGVSLSLENRELWKEFSSVGTEMIITKAGRRMFPACRVSVTGLDPEARYLFLLDVIPVDGARYRWQGRRWEPSGKAEPRLPDRVYIHPDSPATGAHWMRQPVSFHRVKLTNSTLDPHGHLILHSMHKYQPRIHLVRAAQLCSQHWGGMASFRFPETTFISVTAYQNPQITQLKIAANPFAKGFRENGRNCKRERDARVKRKLRGPEPAATEAYGSGDTPGGPCDSTLGGDIRESDPEQAPAPGEATAAPAPLCGGPSAEAYLLHPAAFHGAPSHLPTRSPSFPEAPDSGRSAPYSAAFLELPHGSGGSGYPAAPPAVPFAPHFLQGGPFPLPYTAPGGYLDVGSKPMY
B10: HOXC13, P31276 (protein)
chain: MTTSLLLHPRWPESLMYVYEDSAAESGIGGGGGGGGGGTGGAGGGCSGASPGKAPSMDGLGSSCPASHCRDLLPHPVLGRPPAPLGAPQGAVYTDIPAPEAARQCAPPPAPPTSSSATLGYGYPFGGSYYGCRLSHNVNLQQKPCAYHPGDKYPEPSGALPGDDLSSRAKEFAFYPSFASSYQAMPGYLDVSVVPGISGHPEPRHDALIPVEGYQHWALSNGWDSQVYCSKEQSQSAHLWKSPFPDVVPLQPEVSSYRRGRKKRVPYTKVQLKELEKEYAASKFITKEKRRRISATTNLSERQVTIWFQNRRVKEKKVVSKSKAPHLHST

This test concerns the target nucleoprotein N of Crimean-Congo hemorrhagic fever virus. Nature of the test: AlphaScreen luminescence signal relative to Venus negative control (fold); higher = stronger binding to CCHFV N. On the procedure:
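AlphaScreen binding of cell-free made, FLAG-GST-tagged human transcription factors and regulators (crude translation products) to biotinylated N protein; signal as fold of the FLAG-GST-Venus control. One pass.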
As for B1, the AlphaScreen luminescence signal turned out to be 3.81.

B2 returned an AlphaScreen luminescence signal of 2.33.

B3 gave an AlphaScreen luminescence signal of 2.6.

B4 displayed an AlphaScreen luminescence signal of 1.77.

Turning to B5, the AlphaScreen luminescence signal was 1.77.

B6 gave an AlphaScreen luminescence signal of 3.49.

In turn, B7 registered an AlphaScreen luminescence signal of 1.72.

For B8, the AlphaScreen luminescence signal turned out to be 2.33.

B9 yielded an AlphaScreen luminescence signal of 3.77.

Molecule B10 gave an AlphaScreen luminescence signal of 1.86.
